The results in this text go back to PMC4336329 (PLoS ONE, 2015).

The whole screen tested about 310,000 compounds, of which about 2,200 (0.71%) showed an effect of 50% or more. Effects have a minus sign here. The list shows a part of the results.

Chain of human ether-à-go-go-related gene (hERG) potassium channel (Q12809 whole entry, looked up): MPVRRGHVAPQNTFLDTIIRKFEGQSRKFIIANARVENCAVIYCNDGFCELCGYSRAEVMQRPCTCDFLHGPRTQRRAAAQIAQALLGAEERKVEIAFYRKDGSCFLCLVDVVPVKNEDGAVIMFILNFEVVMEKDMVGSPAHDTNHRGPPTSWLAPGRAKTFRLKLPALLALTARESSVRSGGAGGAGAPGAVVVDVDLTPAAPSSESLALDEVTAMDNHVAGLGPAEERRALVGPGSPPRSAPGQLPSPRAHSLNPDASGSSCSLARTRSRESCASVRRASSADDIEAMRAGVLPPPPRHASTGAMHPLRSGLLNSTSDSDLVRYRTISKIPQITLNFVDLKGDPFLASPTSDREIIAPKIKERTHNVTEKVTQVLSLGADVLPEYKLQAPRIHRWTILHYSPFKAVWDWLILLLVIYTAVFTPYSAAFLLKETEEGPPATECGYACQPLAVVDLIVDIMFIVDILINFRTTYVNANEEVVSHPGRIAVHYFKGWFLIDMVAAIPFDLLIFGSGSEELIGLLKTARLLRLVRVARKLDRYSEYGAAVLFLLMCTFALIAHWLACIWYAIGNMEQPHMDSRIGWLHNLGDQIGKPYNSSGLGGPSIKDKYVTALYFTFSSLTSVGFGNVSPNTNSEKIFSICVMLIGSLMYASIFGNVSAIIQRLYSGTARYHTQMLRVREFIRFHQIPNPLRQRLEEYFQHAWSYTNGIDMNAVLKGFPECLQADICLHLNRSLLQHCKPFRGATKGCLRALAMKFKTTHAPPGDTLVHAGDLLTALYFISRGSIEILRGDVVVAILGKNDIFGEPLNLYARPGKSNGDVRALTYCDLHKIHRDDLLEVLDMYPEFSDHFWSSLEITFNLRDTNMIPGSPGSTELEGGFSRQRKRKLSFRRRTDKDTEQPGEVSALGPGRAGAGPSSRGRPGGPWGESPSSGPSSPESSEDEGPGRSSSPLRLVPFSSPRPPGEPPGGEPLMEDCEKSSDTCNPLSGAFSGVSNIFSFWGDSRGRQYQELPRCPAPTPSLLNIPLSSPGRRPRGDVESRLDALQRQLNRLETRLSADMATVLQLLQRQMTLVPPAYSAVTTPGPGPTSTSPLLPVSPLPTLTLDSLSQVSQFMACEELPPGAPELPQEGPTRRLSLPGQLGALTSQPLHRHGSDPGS

This test has as its target human ether-à-go-go-related gene (hERG) potassium channel (human, UniProt Q12809). Description: primary screen, population patch clamp on CHO cells stably expressing hERG.
Turning to `Cc1cc(NC(=O)c2c(F)cccc2Cl)n(-c2nc3ccccc3[nH]2)n1`, the “hERG current change (%, negative = inhibition) at 1uM” value was 4.94%. For `Cc1cc(NS(=O)(=O)c2ccc(NC(=O)c3cc4ccccc4o3)cc2)nc(C)n1`, the “hERG current change (%, negative = inhibition) at 1uM” value is 2.74%.

Regarding `CC(C)NC(=O)c1ccccc1-c1nc(-c2ccccc2Cl)no1`, the “hERG current change (%, negative = inhibition) at 1uM” value is given as 7.21%.

Turning to `O=C(NC(Cc1c[nH]c2ccccc12)C(=O)Nc1ccc(OC(F)(F)F)cc1)c1cccs1` (centres unmarked), the “hERG current change (%, negative = inhibition) at 1uM” value is recorded as 4.94%. With `CC1(C)OC(=O)C(=Cc2ccc(-c3ccc(S(N)(=O)=O)cc3)o2)C(=O)O1` the figure was 12.6%; with `Cc1nc2cccc(C(=O)NC3CCCCC3)c2o1`, 15.4%; with `O=C(N/N=C/c1cccnc1)c1cccc(NC(=O)c2ccccc2Cl)c1`, 16.4%. In the case of `CCOC(=O)c1sc(NC(=O)CN2C(=O)NC3(CC(C)CC(C)(C)C3)C2=O)cc1C` (centres unmarked), the “hERG current change (%, negative = inhibition) at 1uM” value is on record as -2.34%. With `Cc1cc(C)n(CCNC(=O)CC2C(=O)NCCN2Cc2ccc(C)o2)n1` (centres unmarked) the figure was 6.27%; with `Cc1ccc(C)c(N(CC(=O)NCc2ccco2)C(=O)CNS(=O)(=O)c2ccccc2)c1`, 12.3%; with `CCOc1ccc2c(c1)[nH]c(=S)n2C`, 8.73%. With `O=C(NCc1ccco1)C(=O)NCC1OCCN1S(=O)(=O)c1ccc(F)cc1` (centres unmarked) the figure was 3.16%.

As for `NC(=O)c1cc(N2C(=O)C3CC=CCC3C2=O)ccc1N1CCCCC1` (centres unmarked), the “hERG current change (%, negative = inhibition) at 1uM” value is recorded as -1.74%. On to `O=C(c1ccc(N2CCCC2=O)cc1)N1CCOCC1`, for which the “hERG current change (%, negative = inhibition) at 1uM” value was 14.2%.

Turning to `CC(C)OC(=O)NC(C)(C)COC(=O)Nc1cccc(Cl)c1`, the “hERG current change (%, negative = inhibition) at 1uM” value is given as -3.54%. For `CS(=O)(=O)Oc1ccccc1/C=C1/N=C(c2ccc(F)cc2)OC1=O`, the “hERG current change (%, negative = inhibition) at 1uM” value is reported as 12%.

As for `CCC(=O)Nc1ccc(-c2nc(-c3ccccc3)n(CC(=O)N3CCCCC3)n2)cc1`, the “hERG current change (%, negative = inhibition) at 1uM” value is listed as 8.01%. Take `CC(C)c1nc2sc3ccccc3c(=O)c2c(=O)n1Cc1ccccc1`: the “hERG current change (%, negative = inhibition) at 1uM” value is listed as 6.97%.

Turning to `O=C(NCc1cccnc1)Nc1cccc(F)c1`, the “hERG current change (%, negative = inhibition) at 1uM” value is reported as 8.66%. The same measure for `C=CCn1c(C(C)NC(=O)CCC)nc2ccccc21` (centres unmarked): 5.97%; for `Cc1cc(C)cc(NC(=O)CSc2nc3nc(C)cc(C)n3n2)c1`: -16.9%; for `CC1CC(CC(=O)NNc2nc(-c3ccccc3)cs2)C(=O)O1` (centres unmarked): 18.9%. The same measure for `O=C(O)c1ccc(NC(=O)c2ccc3c(c2)C(=O)N(c2ccccc2)C3=O)cc1`: 4.69%; for `O=c1cc(-c2ccccc2)nc(N2CCN(Cc3ccccc3)CC2)[nH]1`: 12.8%. Take `O=C(NNS(=O)(=O)c1ccc([N+](=O)[O-])cc1)C(=O)Nc1cccc(C(=O)O)c1`: the “hERG current change (%, negative = inhibition) at 1uM” value is on record as 13.6%. With `S=C(NCc1ccco1)Nc1ccc2c(c1)OCCO2`, the “hERG current change (%, negative = inhibition) at 1uM” value is listed as 9.54%. The same measure for `COc1ccc(C(c2c[nH]c3ccccc23)c2c[nH]c3ccccc23)cc1O`: 13.4%; for `O=C(O)CN1C(=O)/C(=C/C=C/c2ccccc2)SC1=S`: 6.75%; for `O=C(Nn1cnnc1)c1cc(Cl)cc(Cl)c1`: 14.7%.

Take `O=C(O)c1ccccc1C(=O)Nc1nc(-c2ccc3ccccc3c2)cs1`: the “hERG current change (%, negative = inhibition) at 1uM” value worked out at 18.4%. With `CCOc1ccc(N2CC(O)(c3ccc(F)cc3)[N+]3=C2CCCC3)cc1.[Br-]` (centres unmarked) the figure was -13.2%. The same measure for `COc1ccc2oc(C(=O)NCc3ccco3)c(C)c2c1`: 12.3%; for `COc1ncccc1-c1nnn(-c2ccccc2Br)n1`: -2.77%. On to `CCN1CCN(Cc2nc(N)nc(Nc3ccc(C)c(C)c3)n2)CC1`, for which the “hERG current change (%, negative = inhibition) at 1uM” value is reported as -14.8%.

For `NC(=O)NOCc1ncc(C(F)(F)F)cc1Cl`, the “hERG current change (%, negative = inhibition) at 1uM” value worked out at 10.1%. On to `O=C(CSc1ccc(-c2ccco2)nn1)Nc1ccccc1F`, for which the “hERG current change (%, negative = inhibition) at 1uM” value came to 10.5%. With `O=C(NCCCN1CCOCC1)c1ccc2c(=O)n(CCc3ccccc3)c(=O)[nH]c2c1` the figure was 6.51%; with `COc1cccc(NC(=O)CN(C)C(=O)c2csc3c2CCCC3)c1`, 7.5%; with `O=C(NCCc1ccc(Cl)cc1Cl)c1cccnc1`, 12.2%. The same measure for `O=C(COC(=O)CNC(=O)c1cccc(OC(F)F)c1)NNC(=O)c1ccccc1`: 10.1%; for `O=C(CSC1=NC2(CCCCC2)N=C1c1ccccc1)Nc1ccc2c(c1)OCCO2`: -4.48%. `Cc1cccc(C(=O)NCC(=O)N2CCCC2)c1`: the “hERG current change (%, negative = inhibition) at 1uM” value came out at 13%. The same measure for `CCn1ncc(S(=O)(=O)N2CCN(c3cccc(OC)c3)CC2)c1C`: 15.4%; for `O=C(NC1(C(F)(F)F)OCCO1)c1ccc(F)cc1`: 11.5%.
